In US10299477B2 (priority 2015, dated 2019):

Columns and labels:
Format in all cases: in vivo
Botrytis cinerea = experiment: Test Example B: Gray mold on tomato; conditions: 250 ppm spray, preventive; control value class
Description: [Test Example B] Gray Mold on Tomato
Seeds of a test plant (tomato variety: Oogata Fukuju) were planted followed by cultivating until three to five first leaves (true leaves) appeared.

Alternaia brassicicola = experiment: Test Example C: Alternaria sooty spot on cabbage; conditions: 250 ppm spray, preventive; control value class
Description: [Test Example C] Alternaria Sooty Spot on Cabbage
Seeds of a test plant (cabbage variety: Shikidori) were planted followed by cultivating until the cotyledons extended.

[1] = test system: Blumeria graminis f sp. hordei; experiment: Test Example D: Powdery mildew on barley; conditions: 250 ppm spray, preventive; control value class
Description: [Test Example D] Powdery Mildew on Barley
After the sprayed dilutions were dried, conidia of Blumeria graminis f sp. hordei were inoculated to the plants by shaking off.

Puccinia recondita = experiment: Test Example E: Brown rust on wheat; conditions: 250 ppm spray, preventive; control value class
Description: [Test Example E] Brown Rust on Wheat

Plasmopara viticola = experiment: Test Example G: Downy mildew on vine; conditions: 250 ppm spray (2.5 ml/pot), preventive; 7-10 days after inoculation; control value class
Description: [Test Example G] Downy Mildew on Vine
Seeds of a test plant (grape variety: Neomuscat) were planted followed by cultivating until three to four first leaves appeared. […] After the sprayed dilutions were dried, a zoosporangia suspension (1-2×10^4 zoosporangia/ml) of Plasmopara viticola was inoculated to the plants by spraying.

| SMILES | Test B control value (gray mold on tomato) (Botrytis cinerea) | Test C control value (Alternaria sooty spot on cabbage) (Alternaia brassicicola) | Test D control value (powdery mildew on barley) [1] | Test E control value (brown rust on wheat) (Puccinia recondita) | Test G control value (downy mildew on vine) (Plasmopara viticola) |
| --- | --- | --- | --- | --- | --- |
| COc1cc(OC)c(Cl)c(-c2ccc(=O)n(C)c2-c2c(F)cc(Br)cc2F)c1 [Compound 205] | H (H shows more than 50% of control values) | H (H shows more than 50% of control values) | H (H shows more than 50% of control values) | H (H shows more than 50% of control values) | H (H shows more than 50% of control values) |
| COc1cc(-c2ccc(=O)n(C)c2-c2c(F)cc(Br)cc2F)cc(OC)c1Cl [Compound 206] | H (H shows more than 50% of control values) | H (H shows more than 50% of control values) | L (L shows 50% or less of control values) | H (H shows more than 50% of control values) | H (H shows more than 50% of control values) |
| CCN1C(=O)CCC(c2cccc(C)c2)=C1c1c(F)cccc1F [Compound 207] | L (L shows 50% or less of control values) | H (H shows more than 50% of control values) | H (H shows more than 50% of control values) | H (H shows more than 50% of control values) | L (L shows 50% or less of control values) |
| CCN1C(=O)CCC(c2cccc(OC(F)(F)F)c2)=C1c1c(F)cccc1F [Compound 208] | L (L shows 50% or less of control values) | L (L shows 50% or less of control values) | L (L shows 50% or less of control values) | L (L shows 50% or less of control values) | L (L shows 50% or less of control values) |
| CCn1c(-c2c(F)cccc2F)c(-c2ccccc2SC)ccc1=O [Compound 209] | H (H shows more than 50% of control values) | H (H shows more than 50% of control values) | H (H shows more than 50% of control values) | H (H shows more than 50% of control values) | H (H shows more than 50% of control values) |
| CCn1c(-c2c(F)cccc2F)c(-c2ccccc2SCCl)cc(Cl)c1=O [Compound 210] | H (H shows more than 50% of control values) | H (H shows more than 50% of control values) | L (L shows 50% or less of control values) | L (L shows 50% or less of control values) | L (L shows 50% or less of control values) |
| CCn1c(-c2c(F)cccc2F)c(-c2cc(OCC3CC3)ccc2Cl)ccc1=O [Compound 212] | H (H shows more than 50% of control values) | H (H shows more than 50% of control values) | H (H shows more than 50% of control values) | H (H shows more than 50% of control values) | H (H shows more than 50% of control values) |
| CCOc1ccc(Cl)c(-c2ccc(=O)n(CC(F)F)c2-c2c(F)cccc2F)c1 [Compound 214] | H (H shows more than 50% of control values) | H (H shows more than 50% of control values) | H (H shows more than 50% of control values) | H (H shows more than 50% of control values) | L (L shows 50% or less of control values) |
